This is an account of results in US20230039401A1 (ATYR PHARMA, published 2023).

For test [1], the target named is T1, Rat NRP2-Fc-His (R&D Systems #567-N2) (rat, UniProt O35276 23-858, limits assumed).
T1 construct: not shown: Fc and His tag
T1 sequence (looked up): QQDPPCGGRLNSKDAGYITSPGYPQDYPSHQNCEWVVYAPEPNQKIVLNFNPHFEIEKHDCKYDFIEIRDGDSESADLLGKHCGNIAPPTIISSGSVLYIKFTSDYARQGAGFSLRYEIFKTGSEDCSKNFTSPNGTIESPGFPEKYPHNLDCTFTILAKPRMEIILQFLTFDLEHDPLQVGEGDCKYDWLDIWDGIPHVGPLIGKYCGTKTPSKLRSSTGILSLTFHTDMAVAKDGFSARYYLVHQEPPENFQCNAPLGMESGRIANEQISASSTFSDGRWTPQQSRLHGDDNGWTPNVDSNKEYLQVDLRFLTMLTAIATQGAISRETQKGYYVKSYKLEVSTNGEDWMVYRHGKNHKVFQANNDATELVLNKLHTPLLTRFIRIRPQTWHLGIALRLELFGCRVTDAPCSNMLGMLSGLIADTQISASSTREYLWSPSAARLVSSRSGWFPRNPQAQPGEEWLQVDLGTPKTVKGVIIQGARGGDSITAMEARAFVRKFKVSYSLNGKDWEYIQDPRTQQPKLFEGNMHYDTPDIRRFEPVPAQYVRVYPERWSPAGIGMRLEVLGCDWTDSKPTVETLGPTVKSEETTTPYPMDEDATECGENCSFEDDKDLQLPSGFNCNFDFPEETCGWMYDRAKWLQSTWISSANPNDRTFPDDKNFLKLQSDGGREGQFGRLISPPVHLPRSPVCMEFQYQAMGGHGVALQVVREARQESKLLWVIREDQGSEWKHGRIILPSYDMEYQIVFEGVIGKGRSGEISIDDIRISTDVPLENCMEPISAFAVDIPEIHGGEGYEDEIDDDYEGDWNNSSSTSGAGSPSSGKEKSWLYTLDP
The experiment in a line: SPR, Fc-HRS(2-60) immobilised, 50 nM rat NRP2 as analyte.

Test [2] addresses T2, Human NRP2 Variant 2 NRP2a(17), NM_003872, expressed on cells (human, UniProt O60462 23-931).
T2 construct: also called Neuropilin 2A; NRP2 (NM_003872.2)
The experiment in a line: Retrogenix cell microarray, human protein on fixed HEK293 cells, sequential incubation, AF647 anti-human IgG Fc detection, 20 ug/ml test protein. An excerpt:
Primary hits (duplicate spots) were identified by analyzing fluorescence intensity in the AlexaFluor 647 and ZsGreen1 emission channels using the ImageQuant system, following standard fluorescent methodology. […] Additionally all vectors encoding all hits, plus control vectors, were spotted in duplicate on new slides, and used to reverse transfect human HEK293 cells as before.

For test [3], the target named is T3, NRP2a-GFP fusion protein on HEK293T cells (human, UniProt O60462 23-931).
T3 construct: Transiently transfected HEK293T cells, fixed before staining; also called NRP2v2-GFP; cell-expressed NRP2a; not shown: GFP and any linker of the Origene clone
Description: immunofluorescence microscopy (IN Cell Analyzer) on fixed HEK293T cells overexpressing NRP2v2-GFP, GFP Bright gate; Fc-HRS(2-60) titrated in 2 fold steps, complexed with anti-Fc-PE. On the procedure: Cell culture and transfection.
HEK293T cells previously transfected with NRP2v2-GFP were passed the night before staining to 96 well Greiner Clear flat bottomed Microplates pre-coated with collagen coating solution. Supernatants were removed and cells were washed 1 time with binding buffer. Cells were then fixed with 50 μL of 3.7% methanol-free formaldehyde for 20 minutes at room temperature. Cells were washed 2× with binding buffer and then blocked with 100 μL of blocking buffer for 1 hour at room temperature. The cells were then washed one time with binding buffer and then incubated with 50 μL of staining complex overnight at 4 degrees Celsius. […] The Hoechst stain was replaced with 1×PBS and subsequently read on an IN Cell Analyzer 2200. 20× images were acquired and analyzed using In Cell Analyzer 1000 Workstation software. Segmentation of the cell mask was achieved using the GFP channel, and the average PE signal intensity was determined within this mask above a threshold intensity of 5000 (termed GFP Bright cells).

Test [4] deals with T4, Mouse PLXNA1-His (R&D Systems #4309-PA) (mouse, UniProt P70206 28-1242, limits assumed).
T4 construct: also called mouse Plexin A1; not shown: His tag
The experiment in a line: SPR, Fc-HRS(2-60) immobilised, 50 nM mouse Plexin A1 as analyte. For orientation: SPR reads the build-up and loss of mass on a sensor chip optically.

The target in test [5] is T5, NRP1-His (R&D Systems #3870-N1) (human, UniProt O14786-2 22-644).
T5 construct: not shown: His tag
Description: SPR, Fc-HRS(2-60) immobilised, 50 nM NRP1 as analyte.

B1: Fc-HRS(2-60) (Fc fusion)
chain: [letters of human IgG1 Fc omitted]AERAALEELVKLQGERVRGLKQQKASAELIEEEVAKLLKLKAQLGPDESKQKFVLKTPK
notes: also called HRS^FC1; Imod
Turning to B1, the binding result is listed as “binds” in test [1]; “binds” in test [2]; “binds” in test [3]; “no binding (tested: 50 nM)” in test [4]; “no binding (tested: 50 nM)” in test [5].
